Reference: ChEMBL document CHEMBL4888484, “Replenishing the malaria drug discovery pipeline: Screening and hit evaluation of the MMV Hit Generation Library 1 (HGL1) against asexual blood stage Plasmodium falciparum ,using a nano luciferase reporter read-out” (2022)
Among all 150,000 compounds or so, about 540 (0.36%) showed an effect of 50% or more. Some of the results follow.

tested on: Plasmodium falciparum; assay: Primary screen in NF54 nanoGlo assay, in single point, at 2uM, 72h; a lower Z score goes with more inhibition; assay type: functional, Erythrocyte; details: timepoint 72 hour

SMILES	% Inhibition [%]	Z score
COc1ccc(OCc2nc(CCN(C)C(=O)C3CCCC3)no2)cc1	-5	0.74
CC(C)c1ccc(-c2noc(CCC(=O)N3CCOC4CCCC43)n2)cc1 (stereo not drawn)	5	-0.74
CCn1cnnc1NC(=O)Cc1cc(Br)ccc1F	-7	0.91
Cc1nc(N2CCCCCC2)c2sc(=S)n(C)c2n1	-3	0.37
OC[C@@]1(CCc2ccccc2)CCCN(Cc2ccc(F)cc2)C1	1	-0.06
CCn1c(CC2CCN(C(=O)Nc3cc(C)ccc3OC)CC2)nn(C)c1=O	-2	0.24
Cc1cc(Cl)c(NC(=O)NCC(C)CC(C)O)c2cccnc12 (stereo not drawn)	31	-3.52
Cc1ccc(NC(=O)Cn2nc(-c3ccc(C)cc3)cc(NC(=O)c3ccccc3)c2=O)cc1	0	-0.05
Cc1noc(C)c1C(=O)N1CCCCC[C@H]1c1cc(C(F)(F)F)nn1C	-2	0.27
O=C(Nc1nnc[nH]1)C1CC2CCC1O2 (stereo not drawn)	-1	0.11
O=C1CN(CC(=O)Nc2ccc3c(c2)OC2(CCCCC2)O3)CCN1	10	-0.85
O=C(Cc1ccc(-c2ccccc2)cc1)N[C@H]1C[C@H]2C(=O)NCC(=O)N2C1	-13	1.55
CC[C@H](NC(=O)c1ccc(C)n1C(F)F)c1ncnn1CC	-4	0.67
CCc1nc(CNC(=O)N2C[C@@H](C)N(CC(F)(F)F)[C@@H](C)C2)co1	-13	1.64
Cc1cc(S(=O)(=O)[C@H]2CS(=O)(=O)C[C@@H]2N2CCC(C(N)=O)CC2)ccc1F	6	-0.74
O=C(CC1CCCC1)N1CC(N2C(=O)CNC2=O)C1	-11	2.16
O=C1Cc2cc(S(=O)(=O)N3CCN(C(=O)c4ccc(-c5nnco5)cc4)CC3)ccc2N1	-14	2.65
CC1(C)CO[C@H](c2ccccc2Cl)CN1C(=O)c1ccnc(C#N)c1	1	-0.28
Cc1nsc(N(C)Cc2ncc[nH]2)c1C#N	9	-1.48
CN(Cc1cnc(-c2ccccc2)s1)C(=O)CCC1=NNC(=O)CC1	-4	0.52
CC(=O)N1CCC(C(NC(=O)c2cccs2)C(=O)N2CCCCC2C)CC1 (stereo not drawn)	4	-0.78

SMILES	% Inhibition [%]	Z score
CCCC(O)CN(C)CC1CC(c2ccccc2)=NO1 (stereo not drawn)	4	-0.65
CCOc1ccccc1N(C(=O)c1cccc(F)c1)c1nc(C(F)(F)F)c(-c2ccc(F)cc2)s1	-9	1.34
CN1CCN(S(=O)(=O)c2cc(C(=O)O)cc(-c3ccc(CN)cc3)c2)CC1	-5	0.56
N#Cc1ccnc(N2CC[C@H]3[C@H](CCC(=O)N3CCc3ccccc3)C2)c1	-14	1.39
CC(C)CC[C@@H](CCN1CCCC1)c1ccc(OC(C)C)cc1	2	-0.36
CCc1cnc(C)nc1-c1cccc(C(=O)NCCc2nnc(N)s2)c1	5	-0.96
COc1ccc(S(=O)(=O)NC[C@@H](c2ccc(F)cc2)S(=O)(=O)c2cccs2)cc1Cl	-1	0.16
c1cc(CN2CCCn3cncc3C2)n(-c2nccs2)c1	-3	0.6
COCCn1cncc1CN(C)Cc1cnn(C)c1C	-4	0.58
CC(C)(C)n1cc(CN2CCn3nncc3C2)cn1	7	-1.11
O=C(Nc1ccc(N2CCOCC2)c(S(=O)(=O)Nc2ccc(Cl)cc2)c1)c1nc(-c2ccccc2)n(-c2cccc(C(F)(F)F)c2)n1	-3	0.45
CC(C)OCCN1CCN(C(=O)[C@@H]2COc3ccccc32)CC1	-6	0.94
CCn1cc(CN(C)C(=O)C[C@H]2COCCN2C(=O)N2CCCCC2)cn1	-3	0.55
CC(=O)N[C@@H]1c2ccccc2C2(CCN(C(=O)c3n[nH]c4ccccc34)CC2)[C@H]1OCc1ccccn1	-2	0.28
Cc1ccc([C@H](C)N(C)C(=O)c2cn3c(n2)CCCC3)c(C)c1	-2	0.22
Cc1nc2ccc(NC(=O)c3ccc4c(c3)OCO4)cc2s1	-4	0.7
CCCn1cc(CN2CCC3(CC2)Cc2cn(nn2)CCCOc2ccc(cc2)CCNC3=O)c(C)n1	13	-1.83
O=C(CCN(Cc1ccco1)c1nc(-c2cccc(Br)c2)nc2ccccc12)Nc1ccc(F)cc1	-11	1.54
O=C(COc1ccc(Cl)cc1)N1CCc2ccccc2[C@@H]1c1ccc(F)cc1	4	-0.54
Cc1ccc(NS(=O)(=O)c2cc(C(=O)NC3CCCCCC3)ccc2C)cc1C	-9	1.07
Cc1cc(NC(=O)CCn2cccn2)no1	0	-0.09

SMILES	% Inhibition [%]	Z score
CC1CCC(C(N)=O)C(C)N1C(=O)COCC1CCCO1 (stereo not drawn)	-15	2.91
C#CCN(C)Cc1nnc(C)n1CCC	-11	1.98
C[C@H](NC(=O)Cc1cccnc1)C1=CCCCC1	-7	0.97
COc1ccc(NC(=O)[C@@H]2CC(=O)Nc3c(-c4ccc(F)cc4)cnn32)cc1	-16	1.81
Cc1ncc(C(C)NCC2COc3ccccc3O2)c(C)n1 (stereo not drawn)	-5	0.7
Cc1nc2c(NC3CCN(C(=O)NCc4ccco4)CC3)cccn2n1	16	-1.83
C[C@H](Nc1ccc2nccnc2n1)C1(CO)CC1	5	-0.94
Cc1ccc(CC(=O)NCCCN2CCOCC2)cc1C	-15	2.54
Cc1cc(CS(=O)(=O)Cc2csc(C3CCCCC3)n2)no1	-13	2.17
CCCCS(=O)(=O)NCCNc1ccc(-n2cccn2)nn1	-8	1.53
CN(Cc1csc(-c2ccccc2)n1)C(=O)c1ccc2c(c1)OCC(=O)N2	-8	1.13
CC(C)(C)c1nnsc1C(=O)Nc1ccc2[nH]ncc2c1	-5	0.82
COC(=O)C[C@H](NC(=O)Cc1ccc(Cl)cc1)C1CC1	-1	0.13
CCN1CCCc2cc(C(=O)NCc3cccc(OC)c3)sc21	-2	0.39
CC1(C)CN(C(=O)C2(N)CC3(CCC3)C2)[C@H]1C1CCN(Cc2ccccc2)CC1	1	-0.07
Cc1cc(CNC(=O)[C@H]2CCc3nn(CCOc4ccccc4)c(=O)n3CC2)n(C)n1	9	-1.44
O=C(O)c1cc(-c2c[nH]c3ccccc23)on1	-12	1.46
NCC1CCCN1C(=O)C1CC1c1ccc(F)c(F)c1 (stereo not drawn)	-15	1.51
CCC=C(C)C(=O)N1CCCN(C2CCN(CC)CC2)CC1	-4	0.62
Cc1ccc2nc(-c3cc4ccccc4o3)cn2c1	61	-5.65
O=C(O)[C@@H]1C[C@H](O)CCN1C(=O)c1ccccc1-c1ccccc1F	6	-1.05

SMILES	% Inhibition [%]	Z score
Cc1nnc(CNC(=O)c2ccccc2N(C)c2ccccc2)n1C	-13	1.19
Cc1c(Cl)cccc1NC(=O)N[C@@H](C)c1nnc(C(F)(F)F)[nH]1	31	-3.85
O=C(O)[C@H]1CN(C(=O)CCc2cccc(F)c2)C[C@@H]1C1CC1	1	-0.15
CC1CCCCC1NC(=O)COC(=O)c1cnn(C)c1 (stereo not drawn)	2	-0.38
Cc1nc(NC(=O)C2(Cc3ccccc3)CC3CCC2C3)n[nH]1 (stereo not drawn)	-7	0.85
CC(C)c1oncc1NC(=O)CCCNC(=O)OC(C)(C)C	-9	1.59
O=C1C2CCCCC2C(=O)N1CC(O)c1ccc(Cl)cc1 (stereo not drawn)	-9	1.38
COc1cc(NC(=O)N2CCCCC[C@H]2c2ccccc2Cl)cc(OC)c1OC	5	-0.99
Cc1ccc(-c2cn3c4ccccc4nc3n2CCN2CCCC2)cc1	-4	0.6
CCOC1CC(CO)(NCc2cnc3ccsc3c2)C1(C)C (stereo not drawn)	-8	1.03
CC(C)c1nnc(NC(=O)CC[C@@H](C)[C@H]2CC[C@H]3[C@@H]4[C@@H](O)C[C@@H]5C[C@H](O)CC[C@]5(C)[C@H]4CC[C@]23C)s1	-5	0.66
Cc1ccc(NC(=O)[C@@H]2COCCN2C)c(C)c1O	-3	0.38
COCCN1CCCN(Cc2ccc(-c3ccn[nH]3)o2)CC1=O	-6	0.83
CC[C@H](O)Cn1nc(COC)nc1C1(c2ccc(Cl)cc2)CCC1	5	-0.75
CC(C)(C)c1nc(CN2CCCC2)no1	-16	1.83
COc1ccc(-c2noc(-c3nc(Cc4ccc(F)cc4)no3)n2)cc1	-16	1.47
CCS(=O)(=O)CC(=O)Nc1cc(C)ccc1C	-18	3.44
CC[C@H](C)N1CCN(Cc2cccc(Oc3ccccc3)c2)CC1	36	-5.18
Cc1cnc(CNC(=O)[C@]2(c3ccccc3)CC23CCCC3)cn1	-4	0.77
Cc1nc(CNS(=O)(=O)Cc2ccc(F)c(Cl)c2)sc1C	34	-4.56
O=C(NC[C@H]1CCCS1(=O)=O)Nc1ccc(COC2CCCC2)cc1	-6	1
